Measured values taken from patent US20240026036A1 (AstraZeneca / MedImmune, published 2024).

B1: TNFR2-Fc_varB (Fc fusion)
chain: LPAQVAFTPYAPEPGSTCRLREYYDQTAQMCCSKCSPGQHAKVFCTKTSDTVCDSCEDSTYTQLWNWVPECLSCGSRCSSDQVETQACTREQNRICTCRPGWYCALSKQEGCRLCAPLRKCRPGFGVARPGTETSDVVCKPCAPGTFSNTTSSTDICRPHQICNVVAIPGNASMDAVCTSTSPTRSMAPGAVHLPQPVSTRSQHTQPTPEPSTAPSTSFLLPMGPSPPAEGSTGD[human IgG1 Fc not shown]GGGGSGGGGSQVQLVQSGAEVKKPGSSVKVSCKASGGTFSTYGISWVRQAPGQCLEWMGGIIPIFDTGNSAQSFQGRVTITADESTSTAYMELSSLRSEDTAVYYCARSSRIYDLNPSLTAYYDMDVWGQGTMVTVSSGGGGSGGGGSGGGGSGGGGSQSVLTQPPSVSAAPGQKVTISCSGSSSNIGNNYVSWYQQLPGTAPKLLIYDNNKRPSGIPDRFSGSKSGTSATLGITGLQTGDEADYYCGTWDSSLSAWVFGCGTKLTVL
B2: TNFR2-Fc_VH #4 (Fc fusion)
chain: LPAQVAFTPYAPEPGSTCRLREYYDQTAQMCCSKCSPGQHAKVFCTKTSDTVCDSCEDSTYTQLWNWVPECLSCGSRCSSDQVETQACTREQNRICTCRPGWYCALSKQEGCRLCAPLRKCRPGFGVARPGTETSDVVCKPCAPGTFSNTTSSTDICRPHQICNVVAIPGNASMDAVCTSTSPTRSMAPGAVHLPQPVSTRSQHTQPTPEPSTAPSTSFLLPMGPSPPAEGSTGD[human IgG1 Fc not shown]GGGGSGGGGSQVQLVQSGAEVKKPGSSVKVSCKASGGTFSTYGISWVRQAPGQGLEWMGGIIPIFDTGNSAQSFQGRVTITADESTSTAYMELSSLRSEDTAVYYCARSSRIYDLNPSLTAYYDMDVWGQGTMVTVSSGGGGSGGGGSGGGGSAQSVLTQPPSVSAAPGQKVTISCSGSSSNIGNNYVSWYQQLPGTAPKLLIYDNNKRPSGIPDRFSGSKSGTSATLGITGLQTGDEADYYCGTWDSSLSAWVFGGGTKLTVL

What was measured:
Assay in all cases: cell-based or functional assay
[1] = molecular target: T1, Recombinant mouse NGF (R&D Systems) (mouse, UniProt P01139 122-241)
[2] = molecular target: Recombinant human TNFα (R&D Systems) (human, UniProt P01375 fragment)
Sequence of UniProt P01375 (P01375 77-233 limits assumed): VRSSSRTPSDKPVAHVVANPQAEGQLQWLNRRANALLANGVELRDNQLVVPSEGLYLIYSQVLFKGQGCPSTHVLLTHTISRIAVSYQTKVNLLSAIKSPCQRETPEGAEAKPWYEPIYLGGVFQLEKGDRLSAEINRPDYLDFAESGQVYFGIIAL

[3] = molecular target: T1, Recombinant mouse NGF (R&D Systems); remark: listed apart in the source
T1 sequence (P01139 122-241 limits assumed): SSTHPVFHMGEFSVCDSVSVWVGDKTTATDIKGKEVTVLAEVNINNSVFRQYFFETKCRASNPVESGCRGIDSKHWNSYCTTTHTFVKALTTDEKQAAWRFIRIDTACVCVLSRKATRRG

[4] = molecular target: Recombinant human NGF (Sigma) (human, UniProt P01138 fragment)
Sequence of UniProt P01138 (P01138 122-241 limits assumed): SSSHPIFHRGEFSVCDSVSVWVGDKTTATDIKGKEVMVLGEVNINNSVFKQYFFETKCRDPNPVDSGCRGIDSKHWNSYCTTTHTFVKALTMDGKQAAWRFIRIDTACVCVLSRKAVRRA

Binder	IC50, inhibition of murine NGF-induced TF-1 proliferation [1]	IC50, inhibition of TNFα-induced Caspase 3 activity in U937 cells [2]	IC50 (read off the curve) [3]	IC50 (read off the curve) [4]
B1	0.364 µg/mL	165 pM		
B2			~100 pM	~500 pM
